Measurements published in the RNAGym collection of RNA variant scans (doi:10.1073/pnas.2313332121).
This sample is rich in variants without activity.

B1: TPR 5TU (parent)
chain: GGAUCUUCUCGAUCUAACAAAAAAGACAAAUCUGCCACAAAGCUUGAGAGCAUCUUCGGAUGCAGAGGCGGCAGCCUUCGGUGGCGCGAUAGCGCCAACGUUCUCAACUAUGACACGCAAAACGCGUGCUCCGUUGAAUGGAGUUUAUCAUG

Variants of: B1
Assay: polymerase ribozyme fitness, log enrichment relative to wild type (log ratio); higher = more active; in vitro selection for triplet polymerase activity
How it was run: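 Mutant libraries of each subunit of a heterodimeric triplet polymerase ribozyme were built by PCR and transcribed. Each library went through one round of in vitro selection in triplicate: annealing with biotinylated primer, partner subunit and triplets, frozen incubation at −7 °C, gel excision of extended constructs, streptavidin-bead capture and RT-PCR. Input and output libraries were Illumina-sequenced; only genotypes with ≥10 input reads and ≥1 read per output were kept. Fitness is log2(genotype enrichment/wild-type enrichment), using inverse-variance-weighted replicate averages.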

| Variant | polymerase ribozyme fitness (log ratio) |
| --- | --- |
| GGAUCUUAUCGAUCUAACAAAAAAGACAAAUCUGCAACAAAGCUUGAGAGCAUCUUCGGAUGCAGAGGCGGCAGCCUUCGGUGGCGCGAUAGCGCCAACGUUCUCAACUAUGACACGCAAAACGCGUGCUCCGUUGAAUGGAGUUUAUCAUG | ≤ -4.2 |
| GGAUCUUAUCGAUCUAACAAAAAAGACAAAUCUGCCAAAAAGCUUGAGAGCAUCUUCGGAUGCAGAGGCGGCAGCCUUCCGUGGCGCGAUAGCGCCAACGUUCUCAACUAUGACACGCAAAACGCGUGCUCCGUUGAAUGGAGUUUAUCAUG | ≤ -4.2 |
| GGAUCUUAUCGAUCUAACAAAAAAGACAAAUCUGCCAUAAAGCUUGAGAGCAUCUUCGGAUGCAGAGGCGGCAGCCUUCCGUGGUGCGAUAGCGCCAACUUUCUCAACUAUGACACGCAAAACGCGUGCUCCGUUGAAUGGAGUUUAUCAUG | ≤ -4.2 |
| GGAUCUUAUCGAUCUAACAAAAAAGACAAAUCUGCCACAAAGUUUGAGAGCAGCUUCGGAUGCAGAGGCGGCAGCCUUCGGUGCCGCGAUAGCGCCAACGUUCUCAACUAUGACACGCAAAACGCGUGCUCCGUUGAAAGGAGUUUAUCAUG | ≤ -4.2 |
| GGAUCUUAUCGAUCUAACAAAAAAGACAAAUCUGCCACAAAGCUUGAGAGAAUCUUCGGAUGCAGAGGCGGCUGCCUUCGGUGGCGCGAUAGUGCCAACGUUCUCAUCUAUGACACGCAAAACGCGUGCUCCGUUGAAUGGAAUUUAUCAUG | ≤ -4.2 |
| GGAUCUUAUCGAUCUAACAAAAAAGACAAAUCUGCCACAAAGCUUGAGAGGAUCAUCGGAUGCAGAGGCGGCAGCCUUCGGUGGGGCGAUAGCGCCAAUGUUCUAAACUAUGACACGCAAAACGCGUGCUCCGUUGAAUAGAGUUUAUCAUG | ≤ -4.2 |
| GGAUCUUAUCGAUCUAACAAAAAAGACAAAUCUGCCACAAAGCUUGAGAGCAUUUUCGGAUGCAGUGGCGGCAGCCUUCGGUGGGGCGAUAGAGCCAACGUUCUCCACUAUGACACGCAAAACGCGUGCUCCGUUGAAUGGAGUUUAUCAUG | ≤ -4.2 |
| GGAUCUUAUCGAUCUAACAAAAAAGACAAAUCUGCCACAAAGCUUGAGAGCAUUUUCGGAUGCAGAGGCGGCAGCCUUCGGUGGCGUGAUACCGCCAACGUGCUCAACUAUGUCACGCAAAACGCGUGCUCCGUUGAAUGGAGUUUAUCAUG | ≤ -4.2 |
| GGAUCUUAUCGAUCUAACAAAAAAGACAAAUCUGCCACAAAGCUUGAGAGCAUCUUAGGAUGCAGAGGCGGCAGCUUUCGGUGGUGCGAUAGCGCCAACGUUCUCAACUAUGACACGCAAAACGCGUGCUCCGUUGAAUUAAGUUUAUCAUG | ≤ -4.2 |
| GGAUCUUAUCGAUCUAACAAAAAAGACAAAUCUGCCACAAAGCUUGAGAGCAUCUUUGGAUGCAGAGGCGGCAGCCAUCGGUGGCGCGAUAGCGCUAACGUUCUCAACUAUGACACGCAAAACGCGUGCUCCGUUGCAUGGAGUUUAUCAUG | ≤ -4.2 |
| GGAUCUUAUCGAUCUAACAAAAAAGACAAAUCUGCCACAAAGCUUGAGAGCAUCUUCGGAUGCAGAGGCGGGAGCCUUCGGUGGCGCGAUAGCGCCAACGUUCUCAACUAUGACACGCAAAACGCGCGCUCCGUUGAAUGGAUGUUAUCAUG | ≤ -4.2 |
| GGAUCUUAUCGAUCUAACAAAAAAGACAAAUCUGCCACAAAGCUUGAGAGCAUCUUCGGAUGCAGAGGCGGCAGCAUUCGGUGGUGCGAUAGCGCCAACGUUCUCAACUAUGACACGCAAAACGCGUGCUCCGUUGAAUGGACUUUAUCUUG | ≤ -4.2 |
| GGAUCUUAUCGAUCUAACAAAAAAGACAAAUCUGCCACAAAGCUUGAGAGCAUCUUCGGAUGCAGAGGCGGCAGCGUUCGGUGGCGCGAUAUCGCCAACGUUCUCAACUAUGACACGCAAAACGCGUGCUCCGUUGAAUGGAGUUUAUCAUG | ≤ -4.2 |
| GGAUCUUAUCGAUCUAACAAAAAAGACAAAUCUGCCACAAAGCUUGAGAGCAUCUUCGGAUGCAGAGGCGGCAGCCUUGGGUGGCGCGAUAGGGCCAACGUUCUCAACUAUGACACGCAAAACGCGUGCUCCGUUGAAUGGAGUUUAUCAUG | ≤ -4.2 |
| GGAUCUUAUCGAUCUAACAAAAAAGACAAAUCUGCCACAAAGCUUGAGAGCAUCUUCGGAUGCAGAGGCGGCAGCCUUCGGUGGGGCGAUAGCGCCAACGUUUUCAACUGUGACACGCAAAACGCGUGCUCCGGUGAAUGGAGUUUAUGAUG | ≤ -4.2 |
| GGAUCUUAUCGAUCUAACAAAAAAGACAAAUCUGCCACAAAGCUUGAGAGCAUCUUCGGAUGCAGAGGCGGCAGCCUUCGGUGGUGCGAUAGCGCCAACGUUCUCAACUAUGACACGCAAAACGCGUGCUCCGUUGAAUGGAGUUUAUCAUU | ≤ -4.2 |
| GGAUCUUAUCGAUCUAACAAAAAAGACAAAUCUGCCACAAAGCUUGAGAGCAUCUUCGGAUGCAGAGGCGGCAGCCUUCGGUGGCGAGAUAGCGCCAACUUUCUCAACUAUGACACGCAAAACGCUUGCUCCGUUGAAUGGAGUUUAUCAUG | ≤ -4.2 |
| GGAUCUUAUCGAUCUAACAAAAAAUACAAAUCUGCCACAAAGCUUGAGAACAUCUUAGGAUGCAGAGGCGGCAGCCUUCGGUGGCGAGAUAGCGCCAACGUUCUCAUCUAUGACAGGCAAAACGCGUGCUCCGUUGAAUGGAGUUUACCAUG | ≤ -4.2 |
| GGAUCUUAUCGAUCUAACAAAAAAGACAAAUCUGCCACAAACCAUGAGAGCAUCUUCGGAAGCAGAGGCGGCAGCCUUCGCUGGCGCUAUAGCGCCAACGUUCACAACUAUGACACACAAAACGCCUCCUCCGUUGAAUGGAGUUUAUCAUG | ≤ -4.2 |

| Variant | polymerase ribozyme fitness (log ratio) |
| --- | --- |
| GGAUCUUAUCGAUCUAACAAAAAAGACAAAUCUGCCACAAAUCUUGAGAACAUCUUCGGAUGCAGAGGCGGCAUCCUUCGGUGGCGCGAUAGCGUCAACGUUCUCAACUAUGACACGCAAAACGCGUGCUCCGUUGAAUGGAGUUUAUCAUG | ≤ -4.2 |
| GGAUCUUAUCGAUCUAACAAAAAAGACAAAUCUGCCACAAAGCUUCAGAGCAUCUUCGGAUGCAGAGGCGGCAGCCUUCGGUGGUGCGAUAGCGCCAACGUUCUCAACUAUGACACGCAAAACGCGUGCUCCGUUGAAUGGAGUUUAUCAUG | ≤ -4.2 |
| GGAUCUUAUCGAUCUAACAAAAAAGACAAAUCUGCCACAAAGCUUUAGUGCAUCUUCGGAUGCAGAGCCGGCAGCCUUCGGUGGCUCGAUAGCGCCAACGUUCUAAACUAUGACACGCAAAACGCGUGCUCCGUUGAAUGGAGUUUAUCAUG | ≤ -4.2 |
| GGAUCUUAUCGAUCUAACAAAAAAGACAAAUCUGCCACAAAGCUUGAGAACAACUUCGGAUGCAGAGGCGGCAGCCUUCGGUGACGCGAUAGCGCCAACGUUCUCAACUAUGACACUCAAAACGCGUGCUCCGGUGAAUGGAGUUUAUCAUG | ≤ -4.2 |
| GGAUCUUAUCGAUCUAACAAAAAAGACAAAUCUGCCACAAAGCUUGAGAACAUCUCCGGAUGCAGAGGCGGCAGCCUUCGGUGGCGCGAUACCGCCAACGUUCUCCACUAUGACACGCAGAACGCGUGCUCCGUUGAAUGGAGUUUAUCAUG | ≤ -4.2 |
| GGAUCUUAUCGAUCUAACAAAAAAGACAAAUCUGCCACAAAGCUUGAGAGCAUCUUCGGAUGCAGAGUCGGCAGCCUUCGGGGGCGCGAUAGCGACAACCUUCUCAACUAUGACACGCAAAACGCGUGCUCCGUUGAAUGGAGUUUAUCAUG | ≤ -4.2 |
| GGAUCUUAUCGAUCUAACAAAAAAGACAAAUCUGCCACAAAGCUUGAGAGCAUCUUCGGAUGCAGAGGCGCCAGCCGUCGGUGGCACGAUAGCGCCAACGUUCUCAACUAUGACACGCAAAACGCGUGCUCCGUUGAAUGGAGUUUAUCAUG | ≤ -4.2 |
| GGAUCUUAUCGAUCUAACAAAAAAGACAAAUCUGCCACAAAGCUUGAGAGCAUCUUCGGAUGCAGAGGCGGCAGCCUUCGGUAGCGAGAUAGCGCCAACGUUCUCAACUAUGACACGCAAAACGCGUGCUCCGUUGAUUGGAAUUUAUCAUG | ≤ -4.2 |
| GGAUCUUAUCGAUCUAACAAAAAAGACAAAUCUGCCACAAAGCUUGAGAGCAUCUUCGGAUGCAGAGGCGGCAGCCUUCGGUAGCGCGAUAGCGCCAACGUUCUCAACUAUGACACUCAAAACGCGUGGUCCGUUGAAUGGAGUUUAUCAUG | ≤ -4.2 |
| GGAUCUUAUCGAUCUAACAAAAAAGACAAAUCUGCCACAAAGCUUGAGAGCAUCUUCGGAUGCAGAGGCGGCAGCCUUCGGUGGCACGAUAGCGCCAACGUUCUCAACUAUGACACGCAAAACGCGUGCUCCGUUGAAUGGAGUUUAUCAUG | -3.76 |
| GGAUCUUAUCGAUCUAACAAAAAAGACAAAUCUGCCACAAAGCUUGAGAGCAUCUUCGGAUGCAGAGGCGGCAGCCUUCGGUGGCGCGAUACCGCCAACGUUCUCAACUAUGACACGCAAAACGCGUGCUCCGUUGAAUGGACUUUAGCAUG | ≤ -4.2 |
| GGAUCUUACCGAUCUAACAAAAAAGACAAAUCUGCCACAAAUCUUGAGAGCAUCUUCGGAUGCAGAGGCGGCAGCCUUCGGUGGCGCGAUAGAGCCAAUGUUCUCAACUAUGACACGCAUAACGCGUGCUCCGUUGAAUGGAGUUUAUCAUG | ≤ -4.2 |
| GGAUCUUAGUGAUCUAACAAAAAAGACAAAUCUGCCACAAAGCUUGAGAGCAUCUUCGGAUGCAGAGGCGGCAGUCUUCGGUGGCGUGAUAUCGCCAACGUUCUCAACUAUGACACGCAAAACGCGUGCUCCGUGGAAGGUAGUUUAUCAUG | ≤ -4.2 |
| GGAUCUUAUCGAGUUAACAAAAAAGACAAAUCUGCCACAAAGCUAGAGACCAUCUUCGCAUGCAGAGGUGGCAGCCUUCGGUGGCGCGAUAGCGCCAACGUUCUCAACUAUGACACGCAAAACGCGUGCUCCGUUGAAUGGAGUUUAUCAUG | ≤ -4.2 |
| GGAUCUUAUCGAGCUAACAAAAAAGACAAAUCUGCCACAAAGCUUGAGAGGAUCUUCGGGUGCAGAGGCGGCAGCCUUCGGUGGCGCGAUAGAGCCAAUGUUCUCAACUAUGACACGCAAAACGCGUGCUCCGUUGAAUGGAGUUUAUCAUG | ≤ -4.2 |
| GGAUCUUAUCGAGCUAACAAAAAAGACAAAUCUACCACAAAGCUUGAGAGCAUCUUCGGAUGCAGAGGCGGCAGCCUUCGGUGGCGGGAUAGCGCCAACGUUCGCAACUAUGACACGCAAAACGCGUGCUCCGUUGAAUAGAGUUUAUCAUG | ≤ -4.2 |
| GGAUCUUAUCGAUCAAACAAAAAAGACAAAUCUGCCACAAAGCUUGAGAGCAUCUUCGGAUGCAGAGGCGGCAGCCUUCGGUGGGGCGAUGGCGCCAACGUUGUCAACUAUGACACGCAAAACGCGUGCUCCGUUGAAUGGAGUUUAUCAUG | ≤ -4.2 |
| GGAUCUUAUCGAUCAAACAAAAAAUACAAAUCUGCCCCAAAUCUUGAGGGCAUCUUCGGAUGCAGAGGCGGCAGCCUUCGGUGGCGCGAUAGCGACAACGUUCUCAAGUAUGACACGCAAAACGCGUGCUCCGUUGAAUGGAGUUUAUCAUG | ≤ -4.2 |
| GGAUCUUAUCGAUCUAACAAAAAAGACAAAGCGGCCACAUAGCUUGAGAGUAUCUUCGGAUGCAGAGGCGGCAGCCCUCGGUGGCGCGAUAGGGCCAACGUUCUCAAGUAUGACAUGCAAAACGCGUGCUCCGUUGAAUGGAGUUUGUCAUG | ≤ -4.2 |
